Measurements: the supplement of paper PMC7826260
The list shows a part of the results. Cleavage of a single-stranded DNA pool by Rep nickase domains was read by sequencing (3 µM enzyme, 1 h, 37 °C); shown is the middle of each 90-letter strand. The score is log2 (uncut reads / reads without enzyme); strong cutting gives strongly negative numbers. There is no active / inactive call. Because reads are shares of a total, they shift together; where an enzyme cuts many sequences, the uncut ones exceed 0.

What was measured:
Experiment in all cases: uncleaved DNA left, log2 of reads against the no-enzyme library (log2 ratio); higher = less cleavage (more negative = more Rep cleavage of the k-mer); sequences stand for … in CTCGTCCG…ACCGGAGA
[1] = system: T1, Rep nickase domain of Muscovy duck circovirus
T1 sequence (Rep 1-111, printed without the tag): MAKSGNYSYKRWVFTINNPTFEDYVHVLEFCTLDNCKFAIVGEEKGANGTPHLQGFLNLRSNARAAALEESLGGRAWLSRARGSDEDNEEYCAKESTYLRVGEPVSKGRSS
Protocol: (§1)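 A pool of 90-nt single-stranded DNAs with seven random bases just before the constant AC of the nick site (name = the seven bases) was cut by 3 µM recombinant His6-SUMO-tagged Rep nickase domain (300 nM DNA, 50 mM HEPES pH 8.0, 50 mM NaCl, 1 mM MnCl2, 1 h, 37 °C, three replicates). Uncut DNA was amplified and sequenced.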

[2] = system: T2, Rep nickase domain of banana bunchy top virus
T2 sequence (Rep 1-94, printed without the tag): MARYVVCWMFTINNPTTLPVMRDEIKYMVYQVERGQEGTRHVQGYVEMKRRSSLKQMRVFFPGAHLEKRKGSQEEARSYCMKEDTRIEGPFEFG
Protocol: as §1

[3] = system: T3, Rep nickase domain of cabbage leaf curl virus
T3 sequence (Rep 1-116, printed without the tag): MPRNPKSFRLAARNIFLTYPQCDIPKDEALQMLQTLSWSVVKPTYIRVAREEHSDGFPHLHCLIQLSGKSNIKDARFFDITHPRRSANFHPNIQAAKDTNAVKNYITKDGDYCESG
Protocol: as §1

[4] = system: T4, Rep nickase domain of chickpea chlorotic dwarf virus
T4 sequence (Rep 1-124, printed without the tag): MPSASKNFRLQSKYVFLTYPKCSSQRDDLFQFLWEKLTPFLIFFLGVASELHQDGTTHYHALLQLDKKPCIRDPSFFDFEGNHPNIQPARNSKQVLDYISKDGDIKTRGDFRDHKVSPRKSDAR
Protocol: as §1

[5] = system: T5, Rep nickase domain of faba bean necrotic yellows virus
T5 sequence (Rep 1-98, printed without the tag): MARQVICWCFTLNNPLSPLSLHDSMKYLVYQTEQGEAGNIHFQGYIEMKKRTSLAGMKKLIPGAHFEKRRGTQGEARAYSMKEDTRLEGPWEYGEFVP
Protocol: as §1

[6] = system: T6, Rep nickase domain of maize striate mosaic virus
T6 sequence (Rep 1-117, printed without the tag): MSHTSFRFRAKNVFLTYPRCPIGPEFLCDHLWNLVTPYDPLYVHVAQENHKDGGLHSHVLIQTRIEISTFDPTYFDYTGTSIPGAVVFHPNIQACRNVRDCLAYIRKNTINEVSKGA
Protocol: as §1

[7] = system: T7, Rep nickase domain of porcine circovirus 2
T7 sequence (Rep 2-116, printed without the tag): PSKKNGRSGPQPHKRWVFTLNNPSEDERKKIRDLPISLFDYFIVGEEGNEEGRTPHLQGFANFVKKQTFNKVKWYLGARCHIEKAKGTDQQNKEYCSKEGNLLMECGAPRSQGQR
Protocol: as §1

[8] = system: T8, Rep nickase domain of tomato golden mosaic virus
T8 sequence (Rep 1-124, printed without the tag): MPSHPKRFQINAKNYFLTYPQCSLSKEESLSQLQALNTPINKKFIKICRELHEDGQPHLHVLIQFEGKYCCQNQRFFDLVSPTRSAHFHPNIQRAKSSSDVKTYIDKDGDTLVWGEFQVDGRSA
Protocol: as §1

[9] = system: T9, Rep nickase domain of tomato yellow leaf curl virus
T9 sequence (Rep 1-136, printed without the tag): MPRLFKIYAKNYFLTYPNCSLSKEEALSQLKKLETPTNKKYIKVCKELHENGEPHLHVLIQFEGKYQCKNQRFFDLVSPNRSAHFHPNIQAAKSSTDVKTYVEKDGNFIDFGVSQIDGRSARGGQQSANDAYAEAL
Protocol: as §1

[10] = system: T10, Rep nickase domain of wheat dwarf virus
T10 sequence (Rep 1-137, printed without the tag): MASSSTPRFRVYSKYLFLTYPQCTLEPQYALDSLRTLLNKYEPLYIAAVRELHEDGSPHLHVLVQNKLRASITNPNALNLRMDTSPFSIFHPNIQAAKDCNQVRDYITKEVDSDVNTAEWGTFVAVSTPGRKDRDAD
Protocol: as §1

Row | Sequence | uncleaved DNA left (log2) [1] | uncleaved DNA left (log2) [2] | uncleaved DNA left (log2) [3] | uncleaved DNA left (log2) [4] | uncleaved DNA left (log2) [5] | uncleaved DNA left (log2) [6] | uncleaved DNA left (log2) [7] | uncleaved DNA left (log2) [8] | uncleaved DNA left (log2) [9] | uncleaved DNA left (log2) [10]
1 | GATTAGC | 0.0622 | -0.104 | -0.161 | -0.121 | -0.0294 | -0.815 | 0.0187 | -0.000655 | 0.0941 | -0.0822
2 | TAAATGC | 0.0896 | 0.0621 | -0.778 | -1.83 | 0.0346 | -1.21 | 0.143 | 0.0947 | 0.203 | -0.0468
3 | GGCTAGG | 0.114 | 0.153 | 0.373 | 1.07 | 0.0575 | 1.43 | 0.239 | 0.135 | 0.121 | 0.0797
4 | TAGGTAA | 0.0589 | -0.0179 | 0.336 | 0.369 | -0.0719 | 1.05 | -0.17 | 0.0129 | -0.0318 | 0.0415
5 | TTTAGAA | 0.0904 | 0.0465 | 0.294 | 0.226 | 0.0775 | 0.169 | 0.104 | 0.119 | 0.123 | 0.137
6 | TTCTCCA | -0.0941 | -0.112 | 0.0288 | -0.207 | -0.0227 | 0.744 | -0.203 | -0.204 | -0.0519 | -0.0341
7 | GGAGAGG | 0.144 | 0.0415 | 0.608 | 1.37 | 0.0691 | 1.66 | 0.339 | 0.223 | 0.0767 | 0.0886
8 | TTCGAGC | 0.0712 | -0.0746 | 0.248 | 0.383 | -0.076 | 0.00925 | -0.0477 | -0.0797 | 0.033 | -0.095
9 | GTACCCA | 0.035 | 0.103 | 0.355 | 0.67 | 0.0209 | 1.56 | -0.107 | 0.0376 | 0.0842 | 0.16
10 | TACGTGC | 0.0155 | 0.0247 | -0.361 | -0.778 | 0.0584 | -1.03 | 0.125 | -0.0456 | 0.0844 | -0.0335
11 | CGAGGAT | 0.0518 | -0.0194 | 0.15 | 1.66 | -0.0983 | 1.88 | 0.282 | 0.174 | -0.134 | 0.0638
12 | CGGCGAA | -0.115 | -0.0411 | -0.45 | -0.202 | 0.0636 | -0.456 | 0.0402 | -0.0277 | -0.0475 | -0.113
13 | AGACCAC | 0.0154 | 0.0414 | 0.342 | 0.331 | 0.123 | 1.52 | 0.0151 | -0.147 | 0.1 | 0.055
14 | GTACCGG | -0.0448 | -0.000527 | 0.529 | 1.44 | 0.0477 | 1.95 | 0.0955 | 0.0536 | -0.0585 | 0.0482
15 | GCACCCA | -0.0939 | -0.00189 | -0.0379 | -0.328 | -0.0221 | 0.149 | -0.259 | 0.0501 | -0.00609 | 0.0769
